Screen size: about 310,000 compounds; about 2,200 (0.71%) showed an effect of 50% or more. The effect is printed as a negative number. Some of the results follow.
target: human ether-à-go-go-related gene (hERG) potassium channel (human, UniProt Q12809); experiment: primary screen, population patch clamp on CHO cells stably expressing hERG
Sequence (Q12809 whole entry, looked up): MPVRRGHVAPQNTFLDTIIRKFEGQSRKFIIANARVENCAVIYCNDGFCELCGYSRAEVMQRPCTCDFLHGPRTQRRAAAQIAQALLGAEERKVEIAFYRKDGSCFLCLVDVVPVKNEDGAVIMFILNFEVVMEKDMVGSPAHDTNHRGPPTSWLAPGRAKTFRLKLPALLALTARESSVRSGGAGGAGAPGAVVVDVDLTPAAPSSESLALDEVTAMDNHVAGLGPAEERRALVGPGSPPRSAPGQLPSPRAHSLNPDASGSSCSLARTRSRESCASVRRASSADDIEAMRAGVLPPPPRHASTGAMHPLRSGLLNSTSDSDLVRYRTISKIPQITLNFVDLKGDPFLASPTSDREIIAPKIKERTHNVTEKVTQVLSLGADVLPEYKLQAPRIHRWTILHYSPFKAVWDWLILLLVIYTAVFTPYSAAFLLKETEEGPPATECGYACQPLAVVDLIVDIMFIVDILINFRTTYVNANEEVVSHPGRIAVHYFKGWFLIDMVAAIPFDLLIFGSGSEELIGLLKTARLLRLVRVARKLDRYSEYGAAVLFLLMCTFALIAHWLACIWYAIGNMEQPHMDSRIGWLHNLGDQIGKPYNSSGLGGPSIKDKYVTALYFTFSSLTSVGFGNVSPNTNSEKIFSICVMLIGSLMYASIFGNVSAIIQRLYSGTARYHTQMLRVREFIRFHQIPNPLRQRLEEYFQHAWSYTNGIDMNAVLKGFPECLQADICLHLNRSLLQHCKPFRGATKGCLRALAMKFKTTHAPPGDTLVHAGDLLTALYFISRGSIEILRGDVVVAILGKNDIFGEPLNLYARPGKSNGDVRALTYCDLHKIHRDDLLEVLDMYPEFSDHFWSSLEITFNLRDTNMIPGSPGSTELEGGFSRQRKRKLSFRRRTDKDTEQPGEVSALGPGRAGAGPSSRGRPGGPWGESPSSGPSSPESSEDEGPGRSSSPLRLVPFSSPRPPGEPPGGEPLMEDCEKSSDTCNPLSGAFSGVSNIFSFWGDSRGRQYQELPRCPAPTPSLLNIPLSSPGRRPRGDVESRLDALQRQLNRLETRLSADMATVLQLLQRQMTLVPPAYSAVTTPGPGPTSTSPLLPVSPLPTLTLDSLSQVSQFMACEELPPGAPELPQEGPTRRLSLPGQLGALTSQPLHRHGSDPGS

Compound	hERG current change (%, negative = inhibition) at 1uM [%]
Cc1ccc(-n2nc(C(=O)N3CCN(C)CC3)c3c4ccccc4n(C)c3c2=O)cc1	7.7
COC(=O)Cc1c(O)ccn(CCc2ccc(OC)c(OC)c2)c1=O	6.44
COc1ccccc1CN1CCN(C(=O)COc2cccc(C)c2)CC1.O=C(O)C(=O)O	5.35
CN(C(=O)COC(=O)C1COc2ccccc2O1)C1(C#N)CCCCC1 (centres unmarked)	6.44
O=C(NC(=S)Nc1ccccc1N1CCCCC1)c1ccc(F)cc1Cl	18.2
O=C(NCCc1ccc(F)cc1)c1cccc(NC(=O)c2ccccc2)c1	9.16
CNC[C@H](Cc1ccccc1)NC[C@@H](Cc1cccc2ccccc12)NCCc1ccc(C)cc1	6.93
O=C(COC(=O)Cc1c(F)cccc1Cl)Nc1nnc(-c2ccccc2)o1	3.11
COc1cccc(CNC(=O)c2cccc(S(=O)(=O)N3CCN(C)CC3)c2)c1	0.692
C=C(C)Cn1c(N2CCN(c3ccc(OC)cc3)CC2)nc2c1c(=O)n(C)c(=O)n2C	10.4
COc1c(OC2OC(C(=O)O)C(O)C(O)C2O)cc(O)c2c(=O)cc(-c3ccccc3)oc12 (centres unmarked)	15.3
Cl.NS(=O)(=O)c1ccc(CCNC/C=C/c2ccccc2)cc1	-7.95
O=S1(=O)N=C2CCCCCN2C(c2ccccc2)N1 (centres unmarked)	1.16
CCOC(=O)c1cccc(NC(=O)c2ccc(NC(=O)c3ccco3)cc2)c1	14.9
Cc1ccc(C2=CC(c3ccccc3)n3ncnc3N2)c(C)c1 (centres unmarked)	14.5
COc1ccc(/C=C(/NC(=O)c2ccccc2)C(=O)N2CCCCC2)cc1	6.93
COc1ccc2c(CC(=O)N3CCc4ccccc43)coc2c1	9.36
O=C(COC(=O)CCC(=O)c1cccs1)NCc1cccs1	12
N#Cc1ccccc1S(=O)(=O)N1CCN(Cc2c(O)ccc3ccccc23)CC1	7.61
COCCn1c(=S)[nH]c2ccccc21	11.2
C=CCn1c(SCc2cccc(OC)c2)nnc1-c1ccncc1	2.36
COc1ccc(N(CC(=O)NCc2ccco2)C(=O)CCC(=O)Nc2nccs2)cc1	6.73

Compound	hERG current change (%, negative = inhibition) at 1uM [%]
Cc1cccc(C)c1NC(=O)CN1C(=O)S/C(=C\c2cccn2-c2cccc(C(=O)O)c2)C1=O	8.75
COCCNC(=S)NCCCNc1nc2cc3c(cc2cc1C#N)OCO3	7.9
O=C(CSc1nc2[nH]ncc2c(=O)[nH]1)Nc1ccccc1F	-3.59
CC(=O)NC(Nc1c(C)n(C)n(-c2ccccc2)c1=O)C(Cl)(Cl)Cl (centres unmarked)	-4.28
COCCOC1CCN(C(=O)c2ccc(OC)c(OC3CCN(C(C)C)CC3)c2)CC1	17.9
Cc1ccc(C(=O)NCC(=O)Nc2cccc(S(=O)(=O)NC3=NCCCCC3)c2)cc1C	21.3
Cc1cccc(C)c1NC(=O)CSc1cc(C(=O)c2nccn2C)c2ccccc2n1	14.7
Cc1ccccc1Nc1c(-c2cccnc2)nc2cccc(C)n12	-3.73
CCNC(=O)C(C)NC(=O)C1=NN(c2ccccc2)C(=O)CC1 (centres unmarked)	11.3
O=C(O)C/C(=C\c1cc(Cl)c2c(c1)OCO2)c1nc2ccccc2s1	16.2
O=C(CC1OC(=O)c2ccccc21)NNC(=O)c1ccc(F)cc1 (centres unmarked)	-4.7
CN1CCN(Cc2ccc(Sc3ccc(Cl)cc3)c([N+](=O)[O-])c2)CC1	-16.3
CC(=O)Nc1c(C)cc(S(C)(=O)=O)cc1C	14.1
COc1ccc(CNC(=O)C/C(C)=N/NC(=O)C(c2ccccc2)c2ccccc2)cc1	1.82
CCNS(=O)(=O)c1ccc(NC(=O)Cn2nc(C(F)(F)F)cc2C)cc1	6.33
CCc1ccc(-c2nn(-c3ccccc3)cc2C2SCC(=O)N2Cc2ccco2)cc1 (centres unmarked)	11.4
COC(=O)CC(=O)CSc1nc(C)cc(C)c1C#N	19.8
Cc1cccc(OS(=O)(=O)NC(=O)OCC2CCCN3CCCCC23)c1 (centres unmarked)	13.5
CN1CCN(c2nc(N)cc(=O)[nH]2)CC1	13.6
COc1ccc([N+](=O)[O-])cc1NC(=O)Cc1ccccc1Cl	10.1
CCOc1ccc(S(=O)(=O)N(CC)CC(=O)N2CCCC2)cc1C	18.6
C=CCn1c(COc2ccc(CC)cc2)nnc1SC/C(O)=C(\C#N)c1nc2ccccc2[nH]1	7
